# According to publication PMC5892938:
# The other results are listed elsewhere or left out. At the low end of the ranking the order means little.
# Target: GST-SBP-SLBP (stem-loop binding protein) (UniProt Q14493)
# Assay: targeted RNA Bind-n-Seq;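 also: DESeq read counts versus GST-SBP nonspecific binding control pulldown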
# Conditions: RBNS binding buffer: 25 mM Tris pH 7.5, 150 mM KCl, 3 mM MgCl2, 0.1% Tween, 0.5 mg/mL BSA, 1 mM DTT; 27 nM protein, 750 pM RNA pool; temperature not stated; high values mean tight binding
row,Sequence,binding signal (log2 fold change)
1,GGUCACGUCUCAAUCAACUCCAAAGAGGGGGGGAAAACCCCUUUACCCUCAAGAUCAACAGCUCGCAGUCAAG,-0.0287
2,GGUCACGUCUCAAUCAACUCACUAGAGGGGGGGAAAACCCCUUUACCCUCACUCUCAACAGCUCGCAGUCAAG,0.0171
3,GGUCACGUCUCAAUCAACUCUUCUCCCAGGGAAAGCCCUGGCUAACUCAACAGCUCGCAGUCAAG,0.0497
4,GGUCACGUCUCAAUCAACUCAUCGCCAGGAGUUUCCUCCUGUAUAUUCAACAGCUCGCAGUCAAG,0.14
5,GGUCACGUCUCAAUCAACUCAUUUUCAGGAGUUUUCUCCUGUUAACUCAACAGCUCGCAGUCAAG,-0.125
6,GGUCACGUCUCAAUCAACUCUAUCUCAGGAGUUUGCUCCUGCAAUUUCAACAGCUCGCAGUCAAG,0.0141
7,GGUCACGUCUCAAUCAACUCCAACGAGGGGGGGAAAACCCCUUUACCCUCAAUAUCAACAGCUCGCAGUCAAG,-0.236
8,GGUCACGUCUCAAUCAACUCAUCUUCCAGGGAAAUCCCUGGCUAUUUCAACAGCUCGCAGUCAAG,0.109
9,GGUCACGUCUCAAUCAACUCAUCUCCAGGAGUUUCCUCCUGUAAACUCAACAGCUCGCAGUCAAG,0.135
10,GGUCACGUCUCAAUCAACUCAUCCUCAGGAGUUUUCUCCUGUUUAGUCAACAGCUCGCAGUCAAG,0.214
11,GGUCACGUCUCAAUCAACUCUUCUUCCAGGGAAACCCCUGGUAAACUCAACAGCUCGCAGUCAAG,-0.0462
12,GGUCACGUCUCAAUCAACUCUACUUCCAGGGAAAUCCCUGGCAUUCUCAACAGCUCGCAGUCAAG,0.107
13,GGUCACGUCUCAAUCAACUCAAGUCCAGGAGUUUCCUCCUGUUAAUUCAACAGCUCGCAGUCAAG,-0.209
14,GGUCACGUCUCAAUCAACUCCCACGAGGGGGGGAAAACCCCUUUACCCUCAUCUUCAACAGCUCGCAGUCAAG,-0.203
15,GGUCACGUCUCAAUCAACUCUUCUCCAGGAGUUUCCUCCUGCUUUCUCAACAGCUCGCAGUCAAG,0.0742
16,GGUCACGUCUCAAUCAACUCAUCCCCCAGGGAAAGCCCUGGUUUUUUCAACAGCUCGCAGUCAAG,-0.322
17,GGUCACGUCUCAAUCAACUCAAUUUCAGGAGUUUCCUCCUGCUUUUUCAACAGCUCGCAGUCAAG,0.0717
18,GGUCACGUCUCAAUCAACUCAAUUUCAGGAGUUUCCUCCUGUAAACUCAACAGCUCGCAGUCAAG,-0.0664
19,GGUCACGUCUCAAUCAACUCAAUAGAGGGGGGGAAAACCCCUUUACCCUCACAAUCAACAGCUCGCAGUCAAG,0.0449
20,GGUCACGUCUCAAUCAACUCUCAAGAGGGGGGGAAAACCCCUUUACCCUCACUCUCAACAGCUCGCAGUCAAG,0.247
21,GGUCACGUCUCAAUCAACUCUAUGUCAGGAGUUUCCUCCUGCUUAUUCAACAGCUCGCAGUCAAG,0.0552
22,GGUCACGUCUCAAUCAACUCAACUCCAGGAGUUUACUCCUGCUAACUCAACAGCUCGCAGUCAAG,0.0678
23,GGUCACGUCUCAAUCAACUCAAUAGAGGGGGGGAAAACCCCUUUGCCCUCAUUCUCAACAGCUCGCAGUCAAG,-0.116
24,GGUCACGUCUCAAUCAACUCUUCUCCCAGGGAAAACCCUGGCUAUCUCAACAGCUCGCAGUCAAG,-0.126
25,GGUCACGUCUCAAUCAACUCAUCAGAGGGGGGGAAAACCCCUUUACCCUCCACAUCAACAGCUCGCAGUCAAG,0.149

row,Sequence,binding signal (log2 fold change)
1,GGUCACGUCUCAAUCAACUCUUACGAGGGGGGGAAAACCCCUUUACCCUCUUUUUCAACAGCUCGCAGUCAAG,0.274
2,GGUCACGUCUCAAUCAACUCUACUCCCAGGGAAACCCCUGGUAUUCUCAACAGCUCGCAGUCAAG,-0.291
3,GGUCACGUCUCAAUCAACUCAGUCUCCAGGGAAAACCCUGGUAUAUUCAACAGCUCGCAGUCAAG,0.0128
4,GGUCACGUCUCAAUCAACUCUCUGGAGGGGGGGAAAACCCCUUUACCCUCAAUCUCAACAGCUCGCAGUCAAG,-0.315
5,GGUCACGUCUCAAUCAACUCUAUAGAGGGGGGGAAAACCCCUUUACCCUCAUCGUCAACAGCUCGCAGUCAAG,-0.195
6,GGUCACGUCUCAAUCAACUCAUCCUCAGGAGUUUUCUCCUGCAUUCUCAACAGCUCGCAGUCAAG,0.108
7,GGUCACGUCUCAAUCAACUCACACGAGGGGGGGAAAACCCCUUUACCCUCACAUUCAACAGCUCGCAGUCAAG,-0.165
8,GGUCACGUCUCAAUCAACUCAUUCUCCAGGGAAACCCCUGGCAUUUUCAACAGCUCGCAGUCAAG,0.0302
9,GGUCACGUCUCAAUCAACUCAAUCUCCAGGGAAAGCCCUGGCAUAUUCAACAGCUCGCAGUCAAG,0.274
10,GGUCACGUCUCAAUCAACUCAUUUCCAGGAGUUUUCUCCUGCAUACUCAACAGCUCGCAGUCAAG,-0.0244
11,GGUCACGUCUCAAUCAACUCAAUUUCAGGAGUUUUCUCCUGUAAACUCAACAGCUCGCAGUCAAG,-0.0628
12,GGUCACGUCUCAAUCAACUCAAGUCCAGGAGUUUUCUCCUGCAAUCUCAACAGCUCGCAGUCAAG,-0.121
13,GGUCACGUCUCAAUCAACUCAUCUUCCAGGGAAACCCCUGGCGUAUUCAACAGCUCGCAGUCAAG,-0.179
14,GGUCACGUCUCAAUCAACUCUUUCGAGGGGGGGAAAACCCCUUUGCCCUCAUAUUCAACAGCUCGCAGUCAAG,-0.172
15,GGUCACGUCUCAAUCAACUCUACUCCAGGAGUUUCCUCCUGUUUAUUCAACAGCUCGCAGUCAAG,0.033
16,GGUCACGUCUCAAUCAACUCUCUAGAGGGGGGGAAAACCCCUUUACCCUCAUACUCAACAGCUCGCAGUCAAG,-0.00253
17,GGUCACGUCUCAAUCAACUCUCACGAGGGGGGGAAAACCCCUUUACCCUCAAUUUCAACAGCUCGCAGUCAAG,0.0287
18,GGUCACGUCUCAAUCAACUCUUUCUCCAGGGAAAGCCCUGGCAAUUUCAACAGCUCGCAGUCAAG,0.03
19,GGUCACGUCUCAAUCAACUCAUCUUCAGGAGUUUACUCCUGCAUACUCAACAGCUCGCAGUCAAG,0.181
20,GGUCACGUCUCAAUCAACUCGUCUUCAGGAGUUUUCUCCUGCUUUCUCAACAGCUCGCAGUCAAG,-0.0211
21,GGUCACGUCUCAAUCAACUCAGUCCCAGGAGUUUCCUCCUGCAUAUUCAACAGCUCGCAGUCAAG,0.0864
22,GGUCACGUCUCAAUCAACUCUUAAGAGGGGGGGAAAACCCCUUUACCCUCAAAAUCAACAGCUCGCAGUCAAG,0.666
23,GGUCACGUCUCAAUCAACUCCAAAGAGGGGGGGAAAACCCCUUUGCCCUCAAUCUCAACAGCUCGCAGUCAAG,0.107
24,GGUCACGUCUCAAUCAACUCAAGGUCAGGAGUUUCCUCCUGUAAAUUCAACAGCUCGCAGUCAAG,0.224
25,GGUCACGUCUCAAUCAACUCCUACGAGGGGGGGAAAACCCCUUUACCCUCAUCUUCAACAGCUCGCAGUCAAG,-0.192

row,Sequence,binding signal (log2 fold change)
1,GGUCACGUCUCAAUCAACUCCUCGGAGGGGGGGAAAACCCCUUUACCCUCAUUUUCAACAGCUCGCAGUCAAG,-0.271
2,GGUCACGUCUCAAUCAACUCACAAGAGGGGGGGAAAACCCCUUUGCCCUCAAACUCAACAGCUCGCAGUCAAG,0.0112
3,GGUCACGUCUCAAUCAACUCAUCGUCAGGAGUUUACUCCUGCUAUUUCAACAGCUCGCAGUCAAG,0.254
4,GGUCACGUCUCAAUCAACUCAACUCCAGGAGUUUUCUCCUGCAUUUUCAACAGCUCGCAGUCAAG,0.109
5,GGUCACGUCUCAAUCAACUCUAUCCCCAGGGAAAUCCCUGGUUUACUCAACAGCUCGCAGUCAAG,0.0192
6,GGUCACGUCUCAAUCAACUCUUCGUCAGGAGUUUCCUCCUGUAAAUUCAACAGCUCGCAGUCAAG,0.024
7,GGUCACGUCUCAAUCAACUCAAAAGAGGGGGGGAAAACCCCUUUGCCCUCCAACUCAACAGCUCGCAGUCAAG,-0.45
8,GGUCACGUCUCAAUCAACUCAAUCCCAGGAGUUUCCUCCUGCAAUGUCAACAGCUCGCAGUCAAG,0.122
9,GGUCACGUCUCAAUCAACUCAAUCCCCAGGGAAAUCCCUGGCAUACUCAACAGCUCGCAGUCAAG,-0.2
10,GGUCACGUCUCAAUCAACUCCACGGAGGGGGGGAAAACCCCUUUACCCUCAUCUUCAACAGCUCGCAGUCAAG,-0.144
11,GGUCACGUCUCAAUCAACUCUUUUUCAGGAGUUUCCUCCUGCUUUUUCAACAGCUCGCAGUCAAG,-0.0313
12,GGUCACGUCUCAAUCAACUCUCACGAGGGGGGGAAAACCCCUUUACCCUCUUUUUCAACAGCUCGCAGUCAAG,-0.199
13,GGUCACGUCUCAAUCAACUCAUUCCCAGGAGUUUCCUCCUGUUAUUUCAACAGCUCGCAGUCAAG,-0.191
14,GGUCACGUCUCAAUCAACUCAUCCCCAGGAGUUUCCUCCUGUAAUCUCAACAGCUCGCAGUCAAG,0.139
15,GGUCACGUCUCAAUCAACUCUUUCUCCAGGGAAACCCCUGGUUUUCUCAACAGCUCGCAGUCAAG,0.0593
16,GGUCACGUCUCAAUCAACUCAUCGCCCAGGGAAACCCCUGGUUUAUUCAACAGCUCGCAGUCAAG,-0.0473
17,GGUCACGUCUCAAUCAACUCAUCGUCCAGGGAAAUCCCUGGUUAUCUCAACAGCUCGCAGUCAAG,0.00673
18,GGUCACGUCUCAAUCAACUCUUUCCCCAGGGAAACCCCUGGUUUACUCAACAGCUCGCAGUCAAG,0.0377
19,GGUCACGUCUCAAUCAACUCAUCGCCCAGGGAAAACCCUGGUUUAUUCAACAGCUCGCAGUCAAG,-0.292
20,GGUCACGUCUCAAUCAACUCUUUUCCCAGGGAAAUCCCUGGCAUAUUCAACAGCUCGCAGUCAAG,0.112
21,GGUCACGUCUCAAUCAACUCAUUUCCAGGAGUUUUCUCCUGUAUAUUCAACAGCUCGCAGUCAAG,0.0558
22,GGUCACGUCUCAAUCAACUCAUCCCCAGGAGUUUUCUCCUGCAUAUUCAACAGCUCGCAGUCAAG,0.0745
23,GGUCACGUCUCAAUCAACUCAUUUUCCAGGGAAAUCCCUGGUAUUCUCAACAGCUCGCAGUCAAG,0.0873
